PMC4336329 (PLoS ONE, 2015)
In all, about 310,000 compounds went through this assay and about 14,000 (4.5%) showed an effect of 50% or more. The effect is printed as a negative number. Some of the results follow.

These compounds were tested against human ether-à-go-go-related gene (hERG) potassium channel (human, UniProt Q12809) (assay: primary screen, population patch clamp on CHO cells stably expressing hERG).
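Also: peak tail current of the secondary pulse compared with the same well before compound.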

Chain of human ether-à-go-go-related gene (hERG) potassium channel (Q12809 whole entry, looked up): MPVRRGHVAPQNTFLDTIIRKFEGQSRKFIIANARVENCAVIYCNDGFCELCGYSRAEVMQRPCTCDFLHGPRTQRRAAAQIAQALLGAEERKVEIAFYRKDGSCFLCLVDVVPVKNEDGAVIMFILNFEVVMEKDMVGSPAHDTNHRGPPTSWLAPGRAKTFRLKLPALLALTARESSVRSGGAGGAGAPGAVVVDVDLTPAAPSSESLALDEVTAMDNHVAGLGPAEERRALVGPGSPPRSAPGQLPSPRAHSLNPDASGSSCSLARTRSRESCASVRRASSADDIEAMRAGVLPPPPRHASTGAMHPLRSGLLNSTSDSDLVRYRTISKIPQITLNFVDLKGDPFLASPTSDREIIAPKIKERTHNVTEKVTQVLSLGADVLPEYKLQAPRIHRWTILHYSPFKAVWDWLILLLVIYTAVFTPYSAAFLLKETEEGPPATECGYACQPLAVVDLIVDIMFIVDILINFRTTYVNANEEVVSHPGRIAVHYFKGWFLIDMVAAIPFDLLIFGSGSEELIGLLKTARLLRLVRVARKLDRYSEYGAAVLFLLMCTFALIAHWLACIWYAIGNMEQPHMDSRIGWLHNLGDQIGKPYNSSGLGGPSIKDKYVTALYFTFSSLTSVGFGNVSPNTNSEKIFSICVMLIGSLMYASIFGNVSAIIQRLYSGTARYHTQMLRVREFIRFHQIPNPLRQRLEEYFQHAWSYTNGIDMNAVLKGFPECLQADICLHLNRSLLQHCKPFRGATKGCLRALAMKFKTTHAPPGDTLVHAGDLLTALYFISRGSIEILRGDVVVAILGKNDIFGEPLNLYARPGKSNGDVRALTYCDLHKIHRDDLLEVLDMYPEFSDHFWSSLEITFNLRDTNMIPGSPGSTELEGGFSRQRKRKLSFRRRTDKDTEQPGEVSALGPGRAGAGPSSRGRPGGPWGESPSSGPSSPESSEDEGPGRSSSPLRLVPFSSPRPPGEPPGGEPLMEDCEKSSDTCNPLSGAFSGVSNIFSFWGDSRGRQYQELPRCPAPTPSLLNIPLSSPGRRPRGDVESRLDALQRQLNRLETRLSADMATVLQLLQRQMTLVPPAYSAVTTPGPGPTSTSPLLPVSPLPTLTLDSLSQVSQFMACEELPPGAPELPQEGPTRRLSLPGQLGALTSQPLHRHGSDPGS

| SMILES | hERG current change (%, negative = inhibition) at 10uM [%] |
| --- | --- |
| CN(C)c1ccc(C(=S)N2CCN(C(=S)Nc3ccccc3)CC2)cc1 | 5.41 |
| Cc1ccc(CSc2nnnn2C)cc1 | 6.66 |
| Cc1cc(C)c2cc(C(c3nnnn3C3CCCC3)N3CCOCC3)c(=O)[nH]c2c1 (centres unmarked) | -4.09 |
| COc1ccc(N2CCN(C(=O)C3CCN(S(=O)(=O)c4ccc(F)cc4)CC3)CC2)cc1 | -48.3 |
| CCOc1ccc(C(=O)C(C)OC(=O)c2nc(Cl)ccc2Cl)cc1 (centres unmarked) | -25.8 |
| Cc1ccc(S(=O)(=O)N2CCCC(C(=O)NCc3ccc4c(c3)OCO4)C2)cc1 (centres unmarked) | 0.729 |
| CC(=O)C1=C(O)C(=O)N(c2ccc(O)cc2)C1c1ccccc1[N+](=O)[O-] (centres unmarked) | 13.2 |
| COc1ccc(CN2C(=O)CC(=O)NC2=S)cc1 | 18.3 |
| CC(=O)c1ccc(NC(=O)c2sc3nc(N4CCOCC4)c4c(c3c2N)CCCC4)cc1 | 11.1 |
| CCN(CC)S(=O)(=O)c1ccc(-c2nnc(SCC(=O)N3CCc4ccccc43)o2)cc1 | 5.66 |
| COC(=O)C1C(c2ccccc2)C(C(=O)OCc2ccco2)C1c1ccccc1 (centres unmarked) | 5.91 |
| COc1ccc(C(CNC(=O)COc2c(C)cc(C)cc2C)N2CCOCC2)cc1 (centres unmarked) | -12.1 |
| CCOc1ccc(C2C(C(=O)c3cccs3)=C(O)C(=O)N2CCCn2ccnc2)cc1 (centres unmarked) | -1.65 |
| CCOC(=O)c1cnn(-c2sc(C(=O)OCC)c(C)c2C(=O)OCC)c1N | 16.4 |
| COc1ccccc1C(=O)Nn1c(C)nc2ccccc2c1=O | 11.6 |
| O=C(c1ccco1)N1CCN(C(c2ccc(Cl)cc2)c2nnnn2CC2CCCO2)CC1 (centres unmarked) | -22.1 |
| O=C(COc1ccc(Cl)cc1Cl)NC1CCSC1=O (centres unmarked) | -7.02 |
| CCN(C(=O)COC(=O)/C=C/c1ccc(O)c(OC)c1)C1CCS(=O)(=O)C1 (centres unmarked) | -3.88 |
| CCN(CC)C(=O)CNc1ccc(C(F)(F)F)cc1[N+](=O)[O-] | -24.6 |
| CCOCCOCCC(C(=O)OCC)P(=O)(c1ccccc1)c1ccccc1 (centres unmarked) | -13.8 |
| COCCn1c(Cc2ccccc2)nnc1SCC(=O)N1CCOCC1 | 9.96 |
| CCC(=O)Nc1c(C#N)c2nc3ccccc3nc2n1C1CCCCC1 | 16.5 |

| SMILES | hERG current change (%, negative = inhibition) at 10uM [%] |
| --- | --- |
| NS(=O)(=O)c1ccc(CCNC(=O)c2cc3ccccc3oc2=O)cc1 | 6.32 |
| Cc1nc(SCC(N)=O)[nH]c(=O)c1CCC(C)C | 3.92 |
| CC(=O)N1CCOc2ccc(S(=O)(=O)NCC3CCC(C(=O)Nc4ccc(C)cn4)CC3)cc21 (centres unmarked) | 8.8 |
| CCOc1cc(C(c2c(C)[nH][nH]c2=O)c2c(C)[nH][nH]c2=O)cc(Cl)c1O | 14.1 |
| COc1ccccc1CNC(=O)CCCc1nnc2n(C)c(=O)c3sccc3n12 | -28.4 |
| CN(/N=C/c1cccnc1)c1cnn(-c2ccc(F)c(Cl)c2)c(=O)c1Cl | -1.43 |
| CCOC(=O)C1CCCN(C(=O)COc2ccc(N(C)S(=O)(=O)c3ccc(F)cc3)cc2)C1 (centres unmarked) | -66.5 |
| CCOC(=O)C1=C(COC(=O)c2cccc(N(C)C)c2)NC(=O)NC1C (centres unmarked) | 2.49 |
| Clc1cccc(COn2c(-c3ccc(Cl)cc3Cl)nc3ncccc32)c1 | -8.79 |
| O=C(NCCN1CCCC1=O)C1CCC(=O)N(CCc2ccc(Cl)cc2)C1 (centres unmarked) | -4.65 |
| COc1cc(NC(=O)c2oc3ccccc3c2C)ccc1NC(=O)c1ccco1 | 9.89 |
| CCc1ccccc1NC(=O)N[C@@H](C)C(=O)O | 0.395 |
| CCn1c(=O)cc(SCC(=O)NCCCN2CCN(c3ccc(F)cc3)CC2)c2ccccc21 | -46 |
| COC(=O)c1ccc(N2CCN(C)CC2)c(NC(=O)c2cccs2)c1 | -8.75 |
| Cc1nc(NC(=O)CN2CCOCC2)sc1-c1ccccc1 | -8.02 |
| O=C(Nc1ccc(Oc2ccc(NC(=O)Nc3ccc([N+](=O)[O-])cc3)cc2)cc1)Nc1ccc([N+](=O)[O-])cc1 | 20.3 |
| C/C(=N\N=C(/N)SC1CC(=O)N(c2ccc(Br)cc2)C1=O)c1cccs1 (centres unmarked) | -27.9 |
| O=C(O)c1cccnc1SCCc1ccccc1 | -4.45 |
| CCN(C(=O)c1ccc2c(OC)n(CC)nc2c1)c1ccc(OC)cc1 | -1.34 |
| C/C(=N\NC(=O)C(C)Sc1ccccc1)C(C)(C)C (centres unmarked) | -0.719 |
| CCCCn1c(N)c(N(CCOC)C(=O)c2ccc(C)o2)c(=O)[nH]c1=O | -0.775 |
| Cc1ccc(C)c(NC(=S)NCc2cccn2C)c1 | -8.27 |
